Assay results as given in PubChem BioAssay AID1508624 (National Center for Advancing Translational Sciences (NCATS), 2021).
Screen size: about 48,000 compounds; about 120 (0.25%) were called active. Inconclusive results (about 4%) are left out. Calls follow the shape of the dose curve; as a rule, active = well fitted activation curve with a large enough effect; inconclusive = small, poorly fitted or top-dose-only effect, or another doubt; inactive = no such curve, though single readings can be large or run the other way. This is one part of the list.

Test: Primary qHTS for Identification of Small Molecule Activators of Huntingtin-Antisense Promoter Activity; also: nearly all actives have a fitted effect of over 55% in size
Settings: HEK293 HTT-AS promoter firefly luciferase reporter, 24 h; series mostly up to 57.5 µM; activity change, positive = activation: at the top concentration
In short: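 Luminescence was read after Dual-Glo reagent and a 10 min room-temperature incubation. Values were normalized to vehicle (0% activity) and zero RLU (-100% activity). Reporter HEK293 cells had been exposed to compounds (up to 57.5 uM final) for 24 h.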

Activity change, positive = activation, inactive:
CC(=O)Nc1cccc(NC(=O)Cc2csc(COc3cccc(C)c3)n2)c1 -17.4%
COc1ccccc1N1CCN(S(=O)(=O)c2ccc(-n3cnnn3)cc2)CC1 -23.7%
CCOC(=O)N1CCc2c(sc3c2c(=O)n(-c2ccc(CC)cc2)c(=O)n3Cc2cccc(OC)c2)C1 -12.4%
CCc1ccc(S(=O)(=O)N(C(C)=O)c2ccc3oc4c(c3c2)CCCC4)cc1 -38.2%
CCOc1ccc(C(=O)Nc2ccc3c(c2)N(C(C)=O)CCC3)cc1OCC -69.4%
COc1ccc(NS(=O)(=O)c2ccc3c(c2)NC(=O)CCS3)c(OC)c1 -23.3%
CCC(C(=O)Nc1cc(C)ccc1OC)n1nnc(C(=O)OC)c1C(=O)OC (stereo not drawn) -1.36%
CCOc1ccc(C2c3c(oc4cc(C)c(C)cc4c3=O)C(=O)N2c2ccccn2)cc1 (stereo not drawn) 5.83%
Cc1ccc(-n2nc3c(N4CCC(C(=O)N(C)Cc5ccccc5)CC4)nnc(C)c3c2C)cc1 -3.77%
Cc1ccc(C)c(S(=O)(=O)n2nc(C)c(S(=O)(=O)N3CCC(C)CC3)c2C)c1 -6.04%
CC(=O)N1c2ccc(S(=O)(=O)NCC3CCC(C(=O)Nc4cc(C)cc(C)c4)CC3)cc2CC1C (stereo not drawn) -34.8%
CC(=O)Nc1ccc(S(=O)(=O)Nc2nc3n(n2)C(c2ccccc2)C=C(c2ccc(Cl)cc2)N3)cc1 (stereo not drawn) -4.12%
CN(C)c1ccc(CN(Cc2ccco2)C(=O)c2ccc(F)cc2)cc1 -20.2%
COc1ccccc1CNC(=O)CCC(=O)N1Cc2ccccc2Oc2ncccc21 14.4%
COc1ccc(-c2nc3sc(CCNS(=O)(=O)c4c(C)cc(C)cc4C)c(C)n3n2)cc1 -12.6%
COc1cc(Cl)c(C)cc1Nc1nnc(-n2nc(C)cc2C)c2ccccc12 -9.31%
CCc1cccc(NC(=O)C(Cc2ccccc2)NS(=O)(=O)c2ccc3c(c2)c(=O)n(C)c(=O)n3C)c1 (stereo not drawn) -22.7%
COc1cccc(N2CCN(C(=O)c3c4c(nc5ccccc35)C(=O)N(C3CCCCC3)C4)CC2)c1 -23.7%
Cc1cc(SCC(=O)Nc2nsc(-c3ccc(C(C)(C)C)cc3)n2)nc2ccccc12 -2.11%
N[C@H]1CN(c2c(F)cc3c(=O)c(C(=O)O)cn(C4C[C@@H]4F)c3c2Cl)CC12CC2 (stereo partly drawn) -10.8%
COc1cccc(NC(=O)C2CCCN2S(=O)(=O)c2ccc3nc(-c4ccccc4)[nH]c3c2)c1 (stereo not drawn) -36.2%
COc1ccc(OCc2nc(C#N)c(NCc3ccccc3Cl)o2)cc1 -18.2%
COc1ccc(CCC(=O)NCc2nc3cccnc3n2Cc2ccc(OC)cc2)cc1 -9.28%
CCOC(=O)c1c(NC(=O)CS(=O)(=O)c2ccc(Cl)cc2)sc2c1CCCC2 -3.62%
CNC(=O)C1CCN(C(=O)N2CC(C)Oc3ccc(C)cc32)CC1 (stereo not drawn) -8.1%
CCOC(=O)c1c(NC(=O)c2cc(=O)c3c(C)cc(C)cc3o2)sc2c1CCC2 -4.04%
COc1ccc(NC(=O)C2CCN(c3nc(-c4ccc(OC)c(OC)c4)no3)CC2)cc1Cl -7.83%
Cc1ccccc1CNC(=O)C1CCCN(c2nnc(-n3c(C)ccc3C)s2)C1 (stereo not drawn) -13.1%
O=C(O)CCNC(=O)c1ccc(N=Nc2ccc(O)c(C(=O)O)c2)cc1
COc1ccccc1N(C)C(=O)Cn1c(=O)oc2cc(S(=O)(=O)N3CCCC3)ccc21 -11.8%
Cn1cc(S(=O)(=O)N2CCCCCC2)cc1C(=O)N1CCN(c2ccc(Cl)cc2)CC1 -32.6%
CCOC(=O)c1cc(-c2ccccc2)n(CCCC(=O)Nc2ccc(C)c(C)c2)c1C -36.3%
Cn1c(=O)c2c(ncn2CC(=O)Nc2cc(Cl)cc(Cl)c2)n(C)c1=O -45.5%
CCOC(=O)c1c(C)oc2ncnc(N3CCN(c4cccc(Cl)c4)CC3)c12 -40%
CCOC(=O)c1c(C)[nH]c(C)c1S(=O)(=O)N1CCN(c2ccccc2OC)CC1 -16.9%
COc1ccc(Cl)cc1NC(=O)CSc1nc2ccccc2nc1N1CCCCC1 -17.3%
COc1ccc(C2CC(=O)c3cnc4c(-c5ccccc5)c(C)nn4c3C2)c(OC)c1 (stereo not drawn) 0.0523%
CCCCNC(=O)CCCn1c(=O)c2ccccc2n(Cc2ccc(Cl)cc2)c1=O -33.3%
COc1ccc2c(c1)c1c(c(=O)n(-c3ccc(OC)c(OC)c3)c(=O)n1Cc1ccc(C)cc1)n2C -9.06%
COc1ccccc1CNC(=O)CCCn1c(=O)c2cccn2c2ccccc21 -10.4%
CC(C)(C)OC(=O)N1CCC(c2c(C(=O)N3CCOCC3)cnn2-c2ccccc2Cl)CC1 -7.32%
CCn1c(C(=O)N(C2CC2)C2CC2)cc2c3c(ncn3C)c(Nc3cc(C)n(C)n3)nc21 -10.7%
CCc1c(C)nc2nncn2c1Nc1cccc(C)c1 -22.5%
COc1ccc(-c2nc(SCC(=O)Nc3cccc(C(C)=O)c3)n[nH]2)cc1 -10.2%
Fc1ccc(-c2noc3ncnc(N4CCCCC4)c23)cc1 -46.3%
O=C(Cc1ccccc1)Nc1cc(-c2nc3cc(Cl)ccc3o2)ccc1Cl -3.1%
N#Cc1ccccc1S(=O)(=O)N1CCC(Oc2ccc(-n3cnnn3)cc2)CC1 -25.8%
COc1ccc(Cc2nc3ccc(C(=O)NCc4cc(Br)ccc4OC)cc3o2)cc1 -14.1%
CCCN1CCCC[C@H]1C(=O)Nc1c(C)cccc1C -4.08%
COc1ccc(CCCc2nnc(SCC(=O)Nc3ccccc3F)o2)cc1C 6.29% [at 11.5 µM, percent change from vehicle, -100% = no light]
COc1cc(C(=O)NCc2ccc(OCCN(C)C)cc2)cc(OC)c1OC -15.6%
COc1cccc(N(Cc2nnc3n2CCCCC3)C(=O)Nc2cccc(Cl)c2)c1 -22.7%
CCOCCCNC(=O)CN1C(=O)c2c(c3ccccc3n2C)C1c1ccc(OC)cc1 (stereo not drawn) -3.68%
O=C(Cc1csc2nc(-c3ccccc3)cn12)NCc1ccc(F)cc1 -6.46%
CCOc1ccccc1NC(=O)N1CCCn2nc(C)cc21 -11.2%
O=C(NCC(c1cccs1)S(=O)(=O)c1cccs1)c1ccc(C(F)(F)F)cc1 (stereo not drawn) -34.9%
COc1ccc(N(C(=O)COc2ccc(Br)cc2)S(=O)(=O)c2ccc(C)cc2)cc1 -25.4%
CCOC(=O)c1c(S(=O)(=O)N2CCCC(C(=O)Nc3ncccc3C)C2)c(C)n(C)c1C (stereo not drawn) 0%
O=C(OCc1ccccc1Cl)c1ccc(-c2nnn(Cc3ccccc3Cl)n2)cc1 -4.81%
CC(C)(OCc1nn(Cc2ccccc2)c2ccccc12)C(=O)O -6.44%
Cc1ccc(S(=O)(=O)N[C@@H](Cc2ccccc2)C(=O)CCl)cc1 -30.4%
COc1cc(/C=C/c2nc(C#N)c(NC(C)c3ccccc3)o2)cc(OC)c1OC (stereo not drawn) -40.2%
COc1cc(NCc2ccc3nc(N)nc(N)c3c2C)cc(OC)c1OC
O=C(CCCCn1c(=O)c2ccccc2n(CC(=O)Nc2cccc(F)c2)c1=O)NCc1ccccc1Cl -3.27%
CCOc1ccc(CNC(=O)Cn2c(=O)c3cccn3c3ccc(F)cc32)cc1OC -16.3%
Cc1ccc(CNC(=O)Cn2c(=O)n(-c3ccccc3)c(=O)c3c2c2cc(C)ccc2n3C)cc1 -12.1%
CCCCN(C)CCNC(=O)Cn1ncc2c([nH]c3ccccc32)c1=O -4.05%
Cc1ccc(NC(=O)CCSc2nc(-c3ccc4c(c3)OCO4)cc(C(F)(F)F)n2)cc1 -18.6%
CCc1ccc(Oc2nc3c(C)cccn3c(=O)c2/C=C(\C#N)c2nc3ccccc3s2)cc1 -3.62%
O=C(c1ccc(Cl)cc1)n1nc(-c2ccco2)nc1NCc1cccs1 33.3%
CCOC(=O)c1cccc(NC(=O)CCNS(=O)(=O)c2cccc3nonc23)c1 -11.4%
CC1=C(c2ccc(Cl)cc2)S(=O)(=O)NC1=NCc1ccc(C)cc1 -3.41%
O=C(CSc1nc2c(oc3ccccc32)c(=O)[nH]1)Nc1cccc(Cl)c1 11.4%
O=c1cc(CO)occ1O -1.36%
CN(C)c1cccc(C(=O)Nc2ccc(-c3nc4ccccc4s3)cc2)c1 -3.48%
CC12CN3CC(C)(CN(C1)C3c1ccc(OCc3ccccc3)cc1)C2=O (stereo not drawn) 19.3%
Cn1c(C(=O)N2CCC(C(=O)NCCc3ccc(S(N)(=O)=O)cc3)CC2)cc2sccc21 0.824%
CCOC(=O)c1ccc(NC(=O)c2cc3c(n(-c4ccc(C)cc4)c2=O)CC(C)(C)CC3=O)cc1 -13.7%
Cc1ccc(CCNC(=O)c2ccc(CSCc3ccc(C)cc3)o2)cc1 -39.7%
COc1ccc(-c2nc3scc(CCNS(=O)(=O)c4cccc(C(C)=O)c4)n3n2)cc1 -18.4%
Cc1ccc(NC(=O)CSc2nnc(C)c(=O)[nH]2)cc1 -2.66%
CCc1ccc(NC(=O)Cn2c(=O)ccc3cc(S(=O)(=O)N4CCCC4)ccc32)cc1 -19%
O=C1Nc2cc(Cl)ccc2Oc2cc(Oc3ccccc3)ccc21 -23.5%
COc1ccc(Cn2ccc3nc(C)c(C(=O)Nc4ccc(OC)cc4OC)cc3c2=O)cc1 -0.741%
Cc1cc(C)c(S(=O)(=O)Nc2cccc(-c3cn4ccccc4n3)c2)c(C)c1 7.91%
Cc1ccc(NC(=O)Cn2c(=O)n(CCc3ccccc3)c(=O)c3c4c(sc32)CCCC4)cc1C -7.3%
Cc1ccc(C)c(CN2C(=O)c3ccccc3S(=O)c3ccc(C(=O)NCc4ccco4)cc32)c1 (stereo not drawn) -35.7%
Cc1ccc(NC(=O)Cn2cc(S(=O)(=O)NC(C)C)c(S(=O)(=O)NC(C)C)c2)cc1Cl -6.87%
COc1ccc(Oc2nc3c(c(=O)n(Cc4ccccc4Cl)c(=O)n3C)n2C)cc1 1.17% [at 11.5 µM, percent change from vehicle, -100% = no light]
Cc1cc2ccccc2n1-c1ccc(C(=O)N2CCC(C(=O)NCc3ccc(F)cc3)CC2)s1 -41.8%
COC(=O)c1c(SCC(=O)Nc2ccccc2OC)[nH]c2ccccc2c1=O 5.9%
COc1ccc(CNC(=O)Cn2ccc3cc(S(=O)(=O)N4CCCCCC4)ccc32)c(OC)c1 -19.9%
Cc1ccc(N2CC(NC(=O)/C=C\c3ccc4c(c3)OCO4)CC2=O)cc1 (stereo not drawn) -17.3%
